Results reported in the supplement of paper PMC10126150.
Sequences with one replicate were seen in a single cluster, so their values are uncertain.
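Further: ATP exposure 15 min at 22 °C before imaging.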

Each sequence was assayed on ATP (assay: switch fluorescence ratio, 500 uM ATP over buffer (Cy3 cluster intensity, sum of 5 cycles each) (fold (ratio)); higher = stronger signal-on switching upon ATP binding; sequences stand for … in TCGTCGGCAGCGTCAGATGTGTATAAGAGACAGTTTTTTTTTTTTTTTTTTTTTTTTT…TC). Conditions: aptamer strand: ATP DNA aptamer (quencher-CACCTGGGGGAGTATTGCGGAGGAAGG + anchor), 100 nM annealed; ATP concentration: 500 uM; one replicate.
In short: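 The quencher-labelled ATP aptamer, at 100 nM, was annealed to Cy3-labelled switching-strand clusters on a modified Illumina MiSeq flow-cell. The clusters were imaged in selection buffer, then after 15 min with 500 uM ATP at 22 °C, and this buffer/ATP cycle ran five times with NaOH stripping and re-annealing between runs. Per-cluster fluorescence ratios, summed target-cycle over summed buffer-cycle Cy3 intensity, were averaged per switch-domain sequence. Clusters outside 100-1000 RFU were excluded.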
CTGGGGAAG was tested, and the switch fluorescence ratio was 0.994.
CTGGGGACA gave a switch fluorescence ratio of 1.
Work on CTGGGGACT yielded a switch fluorescence ratio of 0.98.
In the case of CTGGGGCCGC, the switch fluorescence ratio is reported as 0.995.
CTGGGTGAAC was tested, and the switch fluorescence ratio was 0.948.
CTGGGTGCCT showed a switch fluorescence ratio of 0.982.
CTGGGTGTCG showed a switch fluorescence ratio of 1.06.
CTGGTAACAG was tested, and the switch fluorescence ratio was 0.971.
For CTGGTAGCTG, the switch fluorescence ratio was 0.819.
In the case of CTGGTATCCA, the switch fluorescence ratio is reported as 1.
In the case of CTGGTATGTA, the switch fluorescence ratio is reported as 1.01.
CTGGTGAGAC was tested, and the switch fluorescence ratio was 1.17.
Work on CTGGTGATTG yielded a switch fluorescence ratio of 0.993.
Work on CTGGTGGCGC yielded a switch fluorescence ratio of 0.942.
CTGGTGTCCG was tested, and the switch fluorescence ratio was 0.968.
CTGTACACC showed a switch fluorescence ratio of 1.06.
Sequence CTGTACGTGC has a switch fluorescence ratio of 1.08.
In the case of CTGTACGTGG, the switch fluorescence ratio is reported as 1.03.
With CTGTAGAAAT the switch fluorescence ratio was 1.39.
CTGTAGTTAC was tested, and the switch fluorescence ratio was 3.85.
In the case of CTGTATATTG, the switch fluorescence ratio is reported as 0.964.
In the case of CTGTCATAGT, the switch fluorescence ratio is reported as 0.998.
CTGTCATCCG showed a switch fluorescence ratio of 0.992.
For CTGTCCAACC, the switch fluorescence ratio was 1.08.
With CTGTCGAAT the switch fluorescence ratio was 0.993.
Work on CTGTCGTACG yielded a switch fluorescence ratio of 0.976.
Sequence CTGTGAAACA has a switch fluorescence ratio of 1.02.
In the case of CTGTGATCGG, the switch fluorescence ratio is reported as 0.998.
CTGTGTGTTG was tested, and the switch fluorescence ratio was 0.994.
CTGTTAACAT showed a switch fluorescence ratio of 1.01.
In the case of CTGTTACGTG, the switch fluorescence ratio is reported as 1.01.
CTGTTAGACT showed a switch fluorescence ratio of 0.998.
In the case of CTGTTATGGC, the switch fluorescence ratio is reported as 1.14.
In the case of CTGTTCAGGG, the switch fluorescence ratio is reported as 0.949.
Sequence CTGTTGGTGT has a switch fluorescence ratio of 1.03.
Work on CTTAAAACAT yielded a switch fluorescence ratio of 0.972.
CTTAAAATCC was tested, and the switch fluorescence ratio was 1.01.
For CTTAAAATTT, the switch fluorescence ratio was 1.
In the case of CTTAAAGTGG, the switch fluorescence ratio is reported as 0.998.
Work on CTTAACCAG yielded a switch fluorescence ratio of 0.963.
With CTTAAGACGA the switch fluorescence ratio was 1.03.
Sequence CTTAAGCGCG has a switch fluorescence ratio of 0.925.
Sequence CTTAAGCTCA has a switch fluorescence ratio of 0.988.
In the case of CTTAAGCTTG, the switch fluorescence ratio is reported as 1.03.
For CTTAATCCTT, the switch fluorescence ratio was 1.07.
In the case of CTTAATCGTA, the switch fluorescence ratio is reported as 0.95.
CTTAATGTCC showed a switch fluorescence ratio of 1.01.
With CTTAATTCAG the switch fluorescence ratio was 0.992.
CTTACCGGAA was tested, and the switch fluorescence ratio was 1.34.
For CTTACCTTAT, the switch fluorescence ratio was 1.08.
In the case of CTTACGGCTA, the switch fluorescence ratio is reported as 1.05.
Work on CTTACTACAC yielded a switch fluorescence ratio of 1.33.
CTTACTATTT showed a switch fluorescence ratio of 0.974.
For CTTACTGTGC, the switch fluorescence ratio was 1.03.
In the case of CTTAGAACTC, the switch fluorescence ratio is reported as 1.01.
Sequence CTTAGCCGGA has a switch fluorescence ratio of 1.01.
CTTAGCTGGC showed a switch fluorescence ratio of 1.04.
Sequence CTTAGCTTGG has a switch fluorescence ratio of 1.04.
Sequence CTTAGGAATT has a switch fluorescence ratio of 1.02.
CTTAGGGGCT gave a switch fluorescence ratio of 0.961.
Work on CTTAGGTACG yielded a switch fluorescence ratio of 1.01.
Sequence CTTAGTGATA has a switch fluorescence ratio of 0.985.
CTTATCACCT was tested, and the switch fluorescence ratio was 1.15.
Sequence CTTATCAGCG has a switch fluorescence ratio of 0.977.
CTTATGCCAG gave a switch fluorescence ratio of 1.02.
Work on CTTATGGGCA yielded a switch fluorescence ratio of 1.01.
For CTTATGGGTG, the switch fluorescence ratio was 1.
CTTATTAATT showed a switch fluorescence ratio of 1.
In the case of CTTATTAGTC, the switch fluorescence ratio is reported as 0.98.
Sequence CTTATTCCGG has a switch fluorescence ratio of 1.03.
Sequence CTTATTTCGG has a switch fluorescence ratio of 1.05.
Sequence CTTCAGAGGG has a switch fluorescence ratio of 1.
For CTTCATTAGC, the switch fluorescence ratio was 1.11.
CTTCCGGCTG showed a switch fluorescence ratio of 1.58.
CTTCCGTAGA showed a switch fluorescence ratio of 1.98.
CTTCCTCGGT showed a switch fluorescence ratio of 3.01.
CTTCCTGTTG showed a switch fluorescence ratio of 1.09.
CTTCGAAAAT was tested, and the switch fluorescence ratio was 1.12.
Sequence CTTCGAAACC has a switch fluorescence ratio of 1.09.
In the case of CTTCGGTACC, the switch fluorescence ratio is reported as 1.09.
CTTCGTCTAG was tested, and the switch fluorescence ratio was 1.19.
CTTCTACTGC was tested, and the switch fluorescence ratio was 1.06.
CTTCTCTATT showed a switch fluorescence ratio of 0.967.
Sequence CTTCTGGGTC has a switch fluorescence ratio of 0.993.
For CTTCTGTAAT, the switch fluorescence ratio was 1.94.
For CTTCTTACTA, the switch fluorescence ratio was 1.06.
CTTGAAGGAG showed a switch fluorescence ratio of 1.05.
CTTGAATCA was tested, and the switch fluorescence ratio was 0.988.
Sequence CTTGAGAGGA has a switch fluorescence ratio of 1.05.
Work on CTTGAGGCT yielded a switch fluorescence ratio of 1.02.
Sequence CTTGATATGG has a switch fluorescence ratio of 1.
With CTTGATGTGC the switch fluorescence ratio was 1.02.
CTTGCCTCGG was tested, and the switch fluorescence ratio was 1.02.
Sequence CTTGCTGCGC has a switch fluorescence ratio of 1.31.
With CTTGCTGTAG the switch fluorescence ratio was 1.07.
Work on CTTGCTTTTG yielded a switch fluorescence ratio of 1.01.
Sequence CTTGGGCAAA has a switch fluorescence ratio of 1.06.
In the case of CTTGGTACCG, the switch fluorescence ratio is reported as 0.943.
CTTGGTAGAG was tested, and the switch fluorescence ratio was 0.964.
CTTGGTGGCG was tested, and the switch fluorescence ratio was 0.957.
